Measurements published in PMC10541173.
These are yes or no findings as the source states them, for the method shown. For part of these data: Binding seen in cells or lysates may run through a third protein. Some results given as binding are weak or reduced against the parent protein; the word gives no strength. For part of these data: Sequences can lack the tags named with a protein.

Sequences of proteins named here, by UniProt entry; tags and fusion partners are left off. A change or cut given only in a name is not applied to a line headed by its entry. A line that says so, or that is headed by a name, gives the form on record, which may keep a tag or linker. Residues count along the entry.
UniProt Q969W3: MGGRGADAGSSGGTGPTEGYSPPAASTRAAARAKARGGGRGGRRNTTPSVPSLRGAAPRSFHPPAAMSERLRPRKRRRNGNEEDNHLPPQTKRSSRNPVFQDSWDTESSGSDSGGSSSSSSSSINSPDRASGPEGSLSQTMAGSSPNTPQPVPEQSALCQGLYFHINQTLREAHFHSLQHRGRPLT
FLAG-VCF1 isoform 2 Cdel26: residues 1-160 of Q969W3
GST-VCF1 isoform 1 (Q969W3, form named): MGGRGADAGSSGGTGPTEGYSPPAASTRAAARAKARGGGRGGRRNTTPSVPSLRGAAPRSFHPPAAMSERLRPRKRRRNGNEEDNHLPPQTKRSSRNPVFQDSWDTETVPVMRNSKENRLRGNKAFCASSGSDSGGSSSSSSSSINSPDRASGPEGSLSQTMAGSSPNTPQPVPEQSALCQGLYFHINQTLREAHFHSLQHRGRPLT
FLAG-VCF1 isoform 1 Cdel26 (Q969W3, form named): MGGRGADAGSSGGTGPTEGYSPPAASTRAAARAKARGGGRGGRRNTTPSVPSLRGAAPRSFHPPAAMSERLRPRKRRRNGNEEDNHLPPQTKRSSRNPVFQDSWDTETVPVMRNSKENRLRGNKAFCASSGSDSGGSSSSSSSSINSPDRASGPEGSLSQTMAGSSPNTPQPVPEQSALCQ

Columns and labels:
[1] = target: T1, FLAG-VCF2 isoform 3 (human) (UniProt Q5XKR9); assay: co-IP; anti-FLAG (M2 agarose) immunoprecipitation from lysates of HEK293T cells ectopically expressing FLAG-VCF1/2; lysis buffer 50 mM Tris-HCl pH 7.6, 150 mM NaCl, 2 mM MgCl2, 1% NP40, 10% glycerol, 1 mM DTT; overnight at 4°C; immunoblot of endogenous p97 and cofactors
T1 sequence: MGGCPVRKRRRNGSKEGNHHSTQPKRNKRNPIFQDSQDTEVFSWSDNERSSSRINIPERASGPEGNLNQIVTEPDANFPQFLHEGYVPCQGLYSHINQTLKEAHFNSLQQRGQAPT

[2] = target: p97, endogenous (human (endogenous in HEK293T)) (UniProt P55072); assay: co-IP; immunoprecipitation of endogenous p97 (control: unspecific rabbit IgG) from lysates of HEK293T cells ectopically expressing FLAG-VCF1/2 or control cells; Protein G sepharose, 4°C; immunoblot
[3] = target: p97 (two-hybrid bait, BD-p97) (human) (UniProt P55072); assay: two-hybrid; directed assay in yeast PJ69-4a; bait BD-p97 (pGBDU), prey AD-VCF1/2 (pGAD); growth on medium lacking uracil, leucine and histidine, 37°C, 3 d
[4] = target: GST-VCF1 isoform 1 (human) (UniProt Q969W3); assay: pull-down; 0.76 nmole GST fusion immobilised on 10 µl glutathione sepharose beads; 0.2 nmole (monomer) p97 or 0.5 nmole His6-FAF1 (or other purified p97 cofactors) in TBS, 2 mM DTT, 1% Triton X-100; SDS-PAGE with Coomassie or 2,2,2-trichloroethanol staining, FAF1 immunoblot; both purified
[5] = target: GST-VCF1 isoform 2 (human) (UniProt Q969W3); assay: as above
[6] = target: FLAG-VCF1 isoform 2 Cdel26 (human) (UniProt Q969W3); assay: co-IP; anti-FLAG (M2 agarose) immunoprecipitation from lysates of HEK293T cells ectopically expressing FLAG-VCF1/2; lysis buffer 50 mM Tris-HCl pH 7.6, 150 mM NaCl, 2 mM MgCl2, 1% NP40, 10% glycerol, 1 mM DTT; overnight at 4°C; immunoblot of endogenous p97 and cofactors
[7] = target: FLAG-VCF1 isoform 1 Cdel26 (human) (UniProt Q969W3); assay: as above

B1: UBXN7, endogenous (protein, UniProt O94888 1-489)
chain: MAAHGGSAASSALKGLIQQFTTITGASESVGKHMLEACNNNLEMAVTMFLDGGGIAEEPSTSSASVSTVRPHTEEEVRAPIPQKQEILVEPEPLFGAPKRRRPARSIFDGFRDFQTETIRQEQELRNGGAIDKKLTTLADLFRPPIDLMHKGSFETAKECGQMQNKWLMINIQNVQDFACQCLNRDVWSNEAVKNIIREHFIFWQVYHDSEEGQRYIQFYKLGDFPYVSILDPRTGQKLVEWHQLDVSSFLDQVTGFLGEHGQLDGLSSSPPKKCARSESLIDASEDSQLEAAIRASLQETHFDSTQTKQDSRSDEESESELFSGSEEFISVCGSDEEEEVENLAKSRKSPHKDLGHRKEENRRPLTEPPVRTDPGTATNHQGLPAVDSEILEMPPEKADGVVEGIDVNGPKAQLMLRYPDGKREQITLPEQAKLLALVKHVQSKGYPNERFELLTNFPRRKLSHLDYDITLQEAGLCPQETVFVQERN
binding [1]: binds

B2: p47, endogenous (protein, UniProt Q9UNZ2 1-370)
chain: MAAERQEALREFVAVTGAEEDRARFFLESAGWDLQIALASFYEDGGDEDIVTISQATPSSVSRGTAPSDNRVTSFRDLIHDQDEDEEEEEGQRFYAGGSERSGQQIVGPPRKKSPNELVDDLFKGAKEHGAVAVERVTKSPGETSKPRPFAGGGYRLGAAPEEESAYVAGEKRQHSSQDVHVVLKLWKSGFSLDNGELRSYQDPSNAQFLESIRRGEVPAELRRLAHGGQVNLDMEDHRDEDFVKPKGAFKAFTGEGQKLGSTAPQVLSTSSPAQQAENEAKASSSILIDESEPTTNIQIRLADGGRLVQKFNHSHRISDIRLFIVDARPAMAATSFILMTTFPNKELADESQTLKEANLLNAVIVQRLT
binding [2]: binds

B3: VCF2 isoform 3 (two-hybrid prey, AD fusion) (protein, UniProt Q5XKR9-3 1-116)
chain: T1 sequence
binding [3]: binds

B4: His6-p47 (protein, UniProt Q9UNZ2 1-370)
chain: B2 chain
binding [4]: no binding
binding [5]: no binding

B5: His6-UBXN7 (protein, UniProt O94888 1-489)
chain: B1 chain
binding [4]: no binding
binding [5]: no binding

B6: UBXN2B, endogenous (protein, UniProt Q14CS0 1-331)
chain: MAEGGGPEPGEQERRSSGPRPPSARDLQLALAELYEDEVKCKSSKSNRPKATVFKSPRTPPQRFYSSEHEYSGLNIVRPSTGKIVNELFKEAREHGAVPLNEATRASGDDKSKSFTGGGYRLGSSFCKRSEYIYGENQLQDVQILLKLWSNGFSLDDGELRPYNEPTNAQFLESVKRGEIPLELQRLVHGGQVNLDMEDHQDQEYIKPRLRFKAFSGEGQKLGSLTPEIVSTPSSPEEEDKSILNAVVLIDDSVPTTKIQIRLADGSRLIQRFNSTHRILDVRNFIVQSRPEFAALDFILVTSFPNKELTDESLTLLEADILNTVLLQQLK
binding [6]: no binding
binding [7]: no binding
